# According to the supplement of paper PMC8728848:
# This is one part of the list.
# B1: Langerin K313I (Homo sapiens), Q9UJ71 (protein)
# chain: STLNAQIPELKSDLEKASALNTKIRALQGSLENMSKLLKRQNDILQVVSQGWKYFKGNFYYFSLIPKTWYSAEQFCVSRNSHLTSVTSESEQEFLYKTAGGLIYWIGLTKAGMEGDWSWVDDTPFNKVQSARFWIPGEPNNAGNNEHCGNIKAPSLQAWNDAPCDITFLFICKRPYVPSEP
# Experiments:
# Experiment in all cases: glycan array binding signal (z-score within array); higher = stronger binding
# Settings in all cases: glycan notation: IUPAC condensed, linker removed
# [1] = biological target: Neu5Ac(a2-3)Gal(b1-3)[Fuc(a1-4)]GlcNAc
# How it was run: (§1)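 Glycan array data were curated from 3228 arrays in the Consortium for Functional Glycomics database and kept only where the protein sequence was available. Glycan names were converted to IUPAC-condensed notation, and columns mapping to the same glycan were averaged. The binding signal is a within-array Z-score, averaged across arrays of the same protein sequence at different concentrations or buffers and across linkers. Negative Z-scores can be read as non-binding.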
# [2] = biological target: Neu5Ac(a2-3)Gal(b1-3)[Fuc(a1-4)]GlcNAc(b1-3)Gal(b1-3)[Fuc(a1-4)]GlcNAc
# How it was run: as §1
# [3] = biological target: Neu5Ac(a2-3)Gal(b1-3)[Fuc(a1-4)]GlcNAc(b1-3)Gal(b1-4)[Fuc(a1-3)]GlcNAc
# How it was run: as §1
# [4] = biological target: Neu5Ac(a2-3)Gal(b1-3)[GlcNAc(b1-6)]GalNAc
# How it was run: as §1
# [5] = biological target: Neu5Ac(a2-3)Gal(b1-3)[Neu5Ac(a2-6)]GalNAc
# How it was run: as §1
# [6] = biological target: Neu5Ac(a2-3)Gal(b1-3)[Neu5Ac(a2-6)]GlcNAc(b1-3)[Fuc(a1-3)[Gal(b1-4)]GlcNAc(b1-6)]Gal(b1-4)Glc
# How it was run: as §1
# [7] = biological target: Neu5Ac(a2-3)Gal(b1-3)]Neu5Ac(a2-3)Gal(b1-4)]GlcNAc
# How it was run: as §1
# Neu5Ac(a2-3)Gal(b1-4)Glc = biological target: Neu5Ac(a2-3)Gal(b1-4)Glc
# How it was run: as §1
# [8] = biological target: Neu5Ac(a2-3)Gal(b1-4)GlcNAc
# How it was run: as §1
# [9] = biological target: Neu5Ac(a2-3)Gal(b1-4)GlcNAc(b1-2)Man
# How it was run: as §1
# [10] = biological target: Neu5Ac(a2-3)Gal(b1-4)GlcNAc(b1-2)Man(a1-3)[GlcNAc(b1-4)][Neu5Ac(a2-3)Gal(b1-4)GlcNAc(b1-2)Man(a1-6)]Man(b1-4)GlcNAc(b1-4)GlcNAc
# How it was run: as §1
# [11] = biological target: Neu5Ac(a2-3)Gal(b1-4)GlcNAc(b1-2)Man(a1-3)[Neu5Ac(a2-3)Gal(b1-4)GlcNAc(b1-2)Man(a1-6)]Man(b1-4)GlcNAc(b1-4)GlcNAc
# How it was run: as §1
# [12] = biological target: Neu5Ac(a2-3)Gal(b1-4)GlcNAc(b1-2)Man(a1-3)[Neu5Ac(a2-3)Gal(b1-4)GlcNAc(b1-2)Man(a1-6)]Man(b1-4)GlcNAc(b1-4)[Fuc(a1-6)]GlcNAc
# How it was run: as §1
# [13] = biological target: Neu5Ac(a2-3)Gal(b1-4)GlcNAc(b1-2)Man(a1-3)[Neu5Ac(a2-6)Gal(b1-4)GlcNAc(b1-2)Man(a1-6)]Man(b1-4)GlcNAc(b1-4)GlcNAc
# How it was run: as §1
# [14] = biological target: Neu5Ac(a2-3)Gal(b1-4)GlcNAc(b1-2)[Neu5Ac(a2-3)Gal(b1-4)GlcNAc(b1-4)]Man(a1-3)[GlcNAc(b1-4)][Neu5Ac(a2-3)Gal(b1-4)GlcNAc(b1-2)[Neu5Ac(a2-3)Gal(b1-4)GlcNAc(b1-6)]Man(a1-6)]Man(b1-4)GlcNAc(b1-4)GlcNAc
# How it was run: as §1
# [15] = biological target: Neu5Ac(a2-3)Gal(b1-4)GlcNAc(b1-2)[Neu5Ac(a2-3)Gal(b1-4)GlcNAc(b1-4)]Man(a1-3)[GlcNAc(b1-4)][Neu5Ac(a2-3)Gal(b1-4)GlcNAc(b1-4)Man(a1-6)]Man(b1-4)GlcNAc(b1-4)GlcNAc
# How it was run: as §1
# [16] = biological target: Neu5Ac(a2-3)Gal(b1-4)GlcNAc(b1-2)[Neu5Ac(a2-3)Gal(b1-4)GlcNAc(b1-6)]Man(a1-6)[Neu5Ac(a2-3)Gal(b1-4)GlcNAc(b1-2)Man(a1-3)]Man(b1-4)GlcNAc(b1-4)GlcNAc
# How it was run: as §1
# [17] = biological target: Neu5Ac(a2-3)Gal(b1-4)GlcNAc(b1-2)[Neu5Ac(a2-3)Gal(b1-4)GlcNAc(b1-6)]Man(a1-6)[Neu5Ac(a2-3)Gal(b1-4)GlcNAc(b1-2)Man(a1-3)][GlcNAc(b1-4)]Man(b1-4)GlcNAc(b1-4)GlcNAc
# How it was run: as §1
# [18] = biological target: Neu5Ac(a2-3)Gal(b1-4)GlcNAc(b1-3)Gal
# How it was run: as §1
# [19] = biological target: Neu5Ac(a2-3)Gal(b1-4)GlcNAc(b1-3)Gal(b1-3)GlcNAc
# How it was run: as §1
# [20] = biological target: Neu5Ac(a2-3)Gal(b1-4)GlcNAc(b1-3)Gal(b1-4)GlcNAc
# How it was run: as §1
# [21] = biological target: Neu5Ac(a2-3)Gal(b1-4)GlcNAc(b1-3)Gal(b1-4)GlcNAc(b1-2)Man(a1-3)[Neu5Ac(a2-3)Gal(b1-4)GlcNAc(b1-3)Gal(b1-4)GlcNAc(b1-2)Man(a1-6)]Man(b1-4)GlcNAc(b1-4)GlcNAc
# How it was run: as §1
# [22] = biological target: Neu5Ac(a2-3)Gal(b1-4)GlcNAc(b1-3)Gal(b1-4)GlcNAc(b1-3)Gal(b1-4)GlcNAc
# How it was run: as §1
# [23] = biological target: Neu5Ac(a2-3)Gal(b1-4)GlcNAc(b1-3)Gal(b1-4)GlcNAc(b1-3)Gal(b1-4)GlcNAc(b1-2)Man(a1-3)[Neu5Ac(a2-3)Gal(b1-4)GlcNAc(b1-3)Gal(b1-4)GlcNAc(b1-3)Gal(b1-4)GlcNAc(b1-2)Man(a1-6)]GalNAc
# How it was run: as §1
# [24] = biological target: Neu5Ac(a2-3)Gal(b1-4)GlcNAc(b1-3)Gal(b1-4)GlcNAc(b1-3)GalNAc
# How it was run: as §1
# [25] = biological target: Neu5Ac(a2-3)Gal(b1-4)GlcNAc(b1-3)Gal(b1-4)GlcNAc(b1-3)[Neu5Ac(a2-3)Gal(b1-4)GlcNAc(b1-3)Gal(b1-4)GlcNAc(b1-6)]GalNAc
# How it was run: as §1
# [26] = biological target: Neu5Ac(a2-3)Gal(b1-4)GlcNAc(b1-3)Gal(b1-4)GlcNAc(b1-6)[Gal(b1-3)]GalNAc
# How it was run: as §1
# [27] = biological target: Neu5Ac(a2-3)Gal(b1-4)GlcNAc(b1-3)Gal(b1-4)[Fuc(a1-3)]GlcNAc
# How it was run: as §1
# [28] = biological target: Neu5Ac(a2-3)Gal(b1-4)GlcNAc(b1-3)GalNAc
# How it was run: as §1
# [29] = biological target: Neu5Ac(a2-3)Gal(b1-4)GlcNAc(b1-3)[Neu5Ac(a2-3)Gal(b1-4)GlcNAc(b1-6)]GalNAc
# How it was run: as §1
# [30] = biological target: Neu5Ac(a2-3)Gal(b1-4)GlcNAc(b1-6)GalNAc
# How it was run: as §1
# [31] = biological target: Neu5Ac(a2-3)Gal(b1-4)GlcNAc(b1-6)[Gal(b1-3)]GalNAc
# How it was run: as §1
# [32] = biological target: Neu5Ac(a2-3)Gal(b1-4)GlcNAc(b1-6)[Neu5Ac(a2-3)Gal(b1-3)]GalNAc
# How it was run: as §1
# [33] = biological target: Neu5Ac(a2-3)Gal(b1-4)GlcNAc6S
# How it was run: as §1
# [34] = biological target: Neu5Ac(a2-3)Gal(b1-4)[Fuc(a1-3)]GlcNAc
# How it was run: as §1
# [35] = biological target: Neu5Ac(a2-3)Gal(b1-4)[Fuc(a1-3)]GlcNAc(b1-2)Man
# How it was run: as §1
# [36] = biological target: Neu5Ac(a2-3)Gal(b1-4)[Fuc(a1-3)]GlcNAc(b1-3)Gal
# How it was run: as §1
# [37] = biological target: Neu5Ac(a2-3)Gal(b1-4)[Fuc(a1-3)]GlcNAc(b1-3)Gal(b1-4)GlcNAc
# How it was run: as §1
# [38] = biological target: Neu5Ac(a2-3)Gal(b1-4)[Fuc(a1-3)]GlcNAc(b1-3)Gal(b1-4)[Fuc(a1-3)]GlcNAc(b1-3)Gal(b1-4)[Fuc(a1-3)]GlcNAc
# How it was run: as §1
# [39] = biological target: Neu5Ac(a2-3)Gal(b1-4)[Fuc(a1-3)]GlcNAc(b1-3)GalNAc
# How it was run: as §1
# [40] = biological target: Neu5Ac(a2-3)Gal(b1-4)[Fuc(a1-3)]GlcNAc(b1-6)[Gal(b1-3)]GalNAc
# How it was run: as §1
# [41] = biological target: Neu5Ac(a2-3)Gal(b1-4)[Fuc(a1-3)]GlcNAc(b1-6)[Neu5Ac(a2-3)Gal(b1-3)]GalNAc
# How it was run: as §1
# [42] = biological target: Neu5Ac(a2-3)Gal(b1-4)[Fuc(a1-3)]GlcNAc6S
# How it was run: as §1
# [43] = biological target: Neu5Ac(a2-3)Gal6S(b1-4)GlcNAc
# How it was run: as §1
# [44] = biological target: Neu5Ac(a2-3)Gal6S(b1-4)[Fuc(a1-3)]GlcNAc
# How it was run: as §1
binder,measurement,setting,value
B1,glycan array binding signal (z-score),[1],-0.412
same,glycan array binding signal (z-score),[2],0.117
same,glycan array binding signal (z-score),[3],0.383
same,glycan array binding signal (z-score),[4],-0.289
same,glycan array binding signal (z-score),[5],-0.044
same,glycan array binding signal (z-score),[6],-0.347
same,glycan array binding signal (z-score),[7],-0.394
same,glycan array binding signal (z-score),Neu5Ac(a2-3)Gal(b1-4)Glc,-0.095
same,glycan array binding signal (z-score),[8],-0.341
same,glycan array binding signal (z-score),[9],0.555
same,glycan array binding signal (z-score),[10],-0.345
same,glycan array binding signal (z-score),[11],-0.321
same,glycan array binding signal (z-score),[12],0.123
same,glycan array binding signal (z-score),[13],-0.355
same,glycan array binding signal (z-score),[14],-0.368
same,glycan array binding signal (z-score),[15],-0.382
same,glycan array binding signal (z-score),[16],0.056
same,glycan array binding signal (z-score),[17],-0.36
same,glycan array binding signal (z-score),[18],-0.394
same,glycan array binding signal (z-score),[19],-0.315
same,glycan array binding signal (z-score),[20],-0.396
same,glycan array binding signal (z-score),[21],-0.019
same,glycan array binding signal (z-score),[22],-0.27
same,glycan array binding signal (z-score),[23],0.363
same,glycan array binding signal (z-score),[24],-0.308
same,glycan array binding signal (z-score),[25],-0.089
same,glycan array binding signal (z-score),[26],-0.114
same,glycan array binding signal (z-score),[27],-0.297
same,glycan array binding signal (z-score),[28],-0.361
same,glycan array binding signal (z-score),[29],-0.216
same,glycan array binding signal (z-score),[30],-0.217
same,glycan array binding signal (z-score),[31],-0.214
same,glycan array binding signal (z-score),[32],-0.303
same,glycan array binding signal (z-score),[33],-0.389
same,glycan array binding signal (z-score),[34],-0.288
same,glycan array binding signal (z-score),[35],-0.146
same,glycan array binding signal (z-score),[36],-0.372
same,glycan array binding signal (z-score),[37],0.11
same,glycan array binding signal (z-score),[38],-0.162
same,glycan array binding signal (z-score),[39],0.036
same,glycan array binding signal (z-score),[40],0.225
same,glycan array binding signal (z-score),[41],0.428
same,glycan array binding signal (z-score),[42],-0.341
same,glycan array binding signal (z-score),[43],-0.374
same,glycan array binding signal (z-score),[44],-0.392
